# Screen size: about 150,000 compounds; about 540 (0.36%) showed an effect of 50% or more. Some of the results follow.
# Test system: Plasmodium falciparum
# Assay: Primary screen in NF54 nanoGlo assay, in single point, at 2uM, 72h; a lower Z score goes with more inhibition
# Format: functional, Erythrocyte
# Settings: timepoint 72 hour
Structure (SMILES),% Inhibition [%],Z score
COc1ccc(N(C(=O)C2CCCCC2)c2nc(-c3ccc(C)cc3)c(C)s2)c(OC)c1,-13,1.67
Cc1ccn2c(C(=O)NCc3csc(C)n3)nnc2n1,-17,2.72
CCc1ccc(NC(=O)Cn2nc3c(Oc4ccc(C)cc4)nc4ccccc4n3c2=O)cc1,-10,1.47
COc1cc(NC(=O)c2csc(-c3ccnc(N4CCOCC4)c3)n2)cc(OC)c1,-7,0.88
CC(C)Cc1cc(NC(=O)[C@@H]2CC(F)(F)CN2)[nH]n1,-6,0.8
Cc1cnc(CCNC(=O)NC(C)CC(O)c2ccccc2)s1 (stereo not drawn),-1,0.12
N#CCCCC(=O)Nc1ccc(N2CCOCC2=O)c(NC(=O)CCCC#N)c1,1,-0.24
CC(C)(C)c1nc(-c2cccnc2)cs1,-5,0.97
CCc1csc(-c2cn(CC(=O)Nc3ccccc3CC)cn2)n1,-5,0.58
Cc1c(-c2cc(C(=O)NCCc3noc(C(F)(F)F)n3)no2)cnn1C,-4,0.53
Cc1ccc(CN(Cc2ccccc2)C(=O)CN(CC(C)C)C(=O)Nc2ccc(F)c(F)c2)o1,-4,0.58
O=C(c1nc2sccn2c1CN1CCc2sccc2C1)N1CCCC1,8,-1.64
CO[C@H]1CCN(C2CCN(C(=O)CCc3ccc(C)c(C)c3)CC2)C1,-9,1.16
Cn1cnc2ccc(NC(=O)c3cc(C4CC4)[nH]c3C3CC3)cc21,8,-1.29
COc1cc(OC)cc(-c2cc(C(=O)N3CCCCC3)ccn2)c1,5,-0.48
Cc1cc(C(N)=O)c(-c2c(C)n[nH]c2C)nc1C,-18,1.69
CCn1nccc1C(=O)N1CCC(Cc2ccc(C(=O)NC3CC3)cc2)CC1,-4,0.52
C[C@H]1CCN(CCOc2ccc(NC(=O)c3cnccn3)cc2)C1,1,-0.25
Cc1cc(C(F)(F)F)c(C(N)=O)c(N)n1,-3,0.48
COc1ccncc1CNC(=O)c1c(C)nn(C)c1OC[C@H]1CCCCO1,-19,1.92
Cc1nccc(N2CCOc3ccccc3[C@@H]2C)n1,-10,1.47

Structure (SMILES),% Inhibition [%],Z score
c1cc(-c2nc([C@H]3CCOC3)nn2C2CCCCC2)co1,-4,0.4
CCNC(=O)C1CN(C(=O)c2nnn(Cc3ccc(F)cc3)c2C)C1,-10,1.93
CN(C)c1nc(NCCc2nc(-c3cccnc3)n[nH]2)ncc1F,4,-0.79
CN1CC[C@H](NC2CCN(c3ccccc3Cl)CC2)C1,-1,0.19
CN(Cc1ccccc1)[C@H]1CCOC2(CCN(C(=O)c3ccco3)CC2)C1,-13,1.64
COc1cccc(N2C(=O)[C@@H]3CCCN3[C@H]2c2ccc(N(C)C)cc2)c1,6,-0.81
O=C(Cn1cnc2nc(N3CCOCC3)sc2c1=O)Nc1ccc(Cl)cc1,-13,1.57
Cc1ccccc1[C@@H](C)C(=O)NCC1(O)CCS(=O)(=O)CC1,-4,0.84
Cc1cc(NC(=O)CCn2cnc(C)c(C)c2=O)no1,-7,1.18
CCOC(=O)N1CCC(NC(=O)c2ccc(N3C(=O)[C@@H](C)CS3(=O)=O)cc2Cl)CC1,-7,0.86
COc1ccc(-c2cccc(-n3cncc3C(=O)N3Cc4ccccc4C3)c2)cc1OC,-1,0.08
CCCCC[C@H](C)NC(=O)CCC(=O)Nc1cccnc1,31,-4.03
CN(CCNC(=O)c1ccc(-c2cnn(C)c2)cc1)S(C)(=O)=O,-3,0.58
CC(C)OCCCNc1cc(N2CCC[C@H]2C(N)=O)ncn1,-4,0.81
Cc1ccc(S(=O)(=O)NCC2(CNS(=O)(=O)c3ccc(C)cc3)CN(S(=O)(=O)c3ccc(C)cc3)C2)cc1,37,-4.72
CCCN(Cc1nc(COC)c(Cc2ccc(C)cc2)c(=O)[nH]1)C(=O)NC(C)(C)C,-20,1.96
CN1CCOC2CN(C(=O)c3ccc(C#N)[nH]3)CC21 (stereo not drawn),-13,1.53
CC(C)(CC(=O)O)CC(=O)Nc1ccc(Cc2nnc3ccccn23)cc1,34,-1.08
C=CC[C@H](C)NC(=O)c1c(Br)cccc1Br,0,-0.08
Cc1ccc(CN2CCN(CC3CCCCC3)[C@@H](CCO)C2)o1,-17,1.48
COc1ccc(N2CCN3c4cc(Cl)ccc4CC4(C(=O)N(c5ccc(C)cc5)N=C4C)C3C2)cc1 (stereo not drawn),-5,0.71

Structure (SMILES),% Inhibition [%],Z score
COc1cccc(CN2CCC[C@@]3(CCN(C(=O)c4ccsc4)C3)C2)c1,-5,0.92
O=C(NC1CCOCC1)c1cccc(Oc2nccs2)c1,-1,0.2
Cc1noc(C)c1CCC(=O)N1CCN(c2ncnc3c2CCC3)CC1,-13,2.15
CCc1noc(CCNC(=O)Nc2nc(CC)n(C)n2)n1,-15,1.99
Cc1n[nH]nc1C(=O)Nc1nc(Cc2ccc(F)cc2F)ns1,-17,1.48
CCNC(=O)N(Cc1nccn1Cc1ccc(Cl)c(Cl)c1)CC1CC1,-7,0.84
Cc1ocnc1C(=O)Nc1cccc(N2C(=O)CC[C@@H]2C)c1,4,-0.7
Cc1ccc(-c2noc(CCc3nc(-c4ccc(C)cc4)no3)n2)cc1,0,-0.05
O=C(NCC(=O)N1CCCC1)c1nc2cccnc2s1,-9,1.22
Cc1cccc2c1OCC[C@H]2NC(=O)Cn1cnc2c1CCNC21CCOCC1,-5,0.76
O=C(C[C@@H]1Nc2ccccc2NC1=O)Nc1ccc(OC(F)(F)F)cc1,-4,0.57
O=C(CCC(=O)c1ccccc1)Nc1ccc(-c2cc[nH]n2)cc1,-5,0.74
Nc1sc(=O)n(Nc2ccc(S(N)(=O)=O)cc2)c1N1CCOCC1,-36,4.17
COc1ccc(C(=O)N2CCN(c3nc4cc(C)ccc4o3)CC2)nn1,-9,1.7
O=C(c1noc2c1CCCC2)N1C[C@@H]2CCS(=O)(=O)[C@@H]2C1,-10,1.34
CC(C)CCN1CCN([C@H]2CCN(CCc3ccccc3)C2=O)CC1,-6,0.82
Cn1nc(C2CC2)nc1-c1csc2c1CCCC2,-3,0.45
Cc1ccc2c(c1)NC(=O)[C@@H](CC(=O)N1CCN(c3cccc(C)c3C)CC1)CO2,-2,0.31
CC(C)CN(C1CCN(C)CC1)C1CN(C(=O)NCCc2ccccc2)C1,-11,1.45
O=C(CCn1ccccc1=O)N1CCCCCC1,6,-0.93
CC(C)(C)OC(=O)NC[C@H]1CCN(Cc2ccncc2Cl)C1,-12,2.31

Structure (SMILES),% Inhibition [%],Z score
COCc1nc(C(=O)N[C@@H](C(C)C)C2(CO)CCCC2)cs1,-2,0.22
COC1(CNc2nc3ccccc3[nH]2)CCOCC1,-15,1.7
CCOC(=O)N1CCN(C(=O)c2cccn3c(=O)c4cc(Cl)ccc4nc23)CC1,-14,1.66
CC1CCN(C(=O)[C@H]2CCC[C@H]2NC(=O)c2ccncc2)CC1,-15,1.95
O=C(NCCc1nc2ccccc2[nH]1)N1CCO[C@H](c2ccc(F)cc2F)C1,-8,1.47
C[C@H](Oc1ccccn1)c1nc(C2(c3ccncc3)CCC2)no1,0,-0.07
Cc1ccc(CNC(=O)c2[nH]ncc2C(F)(F)F)n1C,-1,0.24
O=C(Nc1ccc2c(c1)OCO2)c1ccc(S(=O)(=O)N2CCCC2)cc1,-1,0.13
Cc1ccc(OCC(=O)Nc2ccccc2C(F)(F)F)nc1,-23,4.66
Cc1cnn(C2(C(=O)O)CCN(C(=O)[C@H](N)C3CCCCC3)CC2)c1,-3,0.59
CCc1nc(C(=O)Nc2cccc(S(=O)(=O)C3CCCC3)c2)co1,-3,0.33
Cc1cccc(CN(Cc2ccccn2)C[C@H]2CCOCO2)c1,-8,0.67
CC(C)(C)c1nnc(NCc2cc(C#N)cs2)o1,-14,1.38
C[C@@H](Cc1ccc(OC(F)(F)F)cc1)C(=O)NCc1ncccn1,-10,1.2
CCC(=O)N1CC(n2cc(C(=O)NCC3CC3)nn2)C1,-6,1.14
O=C(COc1ccc2ccccc2c1Br)N1CCCCCC1,-8,1.03
Cc1ccccc1NC(=O)NC1CCCC(OC(=O)Nc2ccccc2)C1 (stereo not drawn),-5,0.88
CC(C)(C)c1ccc(C(=O)N2CC[C@H](Oc3cc(C(F)(F)F)ccn3)C2)cc1,-14,2.7
Cc1ccc(C)c(S(=O)(=O)NCCO)c1,2,-0.33
O=C(Cn1c(=O)cnc2cc(S(=O)(=O)N3CCCCC3)ccc21)NCc1ccco1,-12,2.3
Cc1nc(NC(=O)C[C@@H]2C=CCC2)sc1-c1ccccn1,-13,1.14
